Experimental data reported in the supplement of paper PMC6089552.
Out of some 3,200 compounds screened, about 300 (9.4%) showed activity. This is a selection; strong and weak results do not stand in their true shares.

Tested on: A673/TR/shEF
Test: cell viability (LOESS-normalised, relative to median of negative controls) (log2 ratio); higher = more viable cells (less compound effect), active = hit call of the paper (over 3 MAD below the median)
Conditions: treatment time: 72 h
Procedure, shortened: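 Doxycycline, present or absent from 24 h before compounds, was used to induce EWS-FLI1 shRNA knockdown in A673/TR/shEF Ewing sarcoma cells at 1,500 per well in 384-well plates. Cells then received library compounds at two or more concentrations, or DMSO controls, for three days. Viability was measured by CellTiter-Glo luminescence on an Envision reader, and per-plate LOESS correction, division by the negative-control median and log2 transformation followed.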

[1] = 0.25 µM, library screen: screen2, EWS-FLI1 expression: high (no doxycycline)
[2] = 0.25 µM, library screen: screen2, EWS-FLI1 expression: low (doxycycline-induced shRNA knockdown)
[3] = 2.5 µM, library screen: screen2, EWS-FLI1 expression: high (no doxycycline)
[4] = 2.5 µM, library screen: screen2, EWS-FLI1 expression: low (doxycycline-induced shRNA knockdown)
[5] = 0.25 µM, library screen: screen1, EWS-FLI1 expression: high (no doxycycline)
[6] = 0.25 µM, library screen: screen1, EWS-FLI1 expression: low (doxycycline-induced shRNA knockdown)
[7] = 2.5 µM, library screen: screen1, EWS-FLI1 expression: high (no doxycycline)
[8] = 2.5 µM, library screen: screen1, EWS-FLI1 expression: low (doxycycline-induced shRNA knockdown)
[9] = 0.103 µM, library screen: screen3, EWS-FLI1 expression: high (no doxycycline)
[10] = 0.103 µM, library screen: screen3, EWS-FLI1 expression: low (doxycycline-induced shRNA knockdown)
[11] = 0.308 µM, library screen: screen3, EWS-FLI1 expression: high (no doxycycline)
[12] = 0.308 µM, library screen: screen3, EWS-FLI1 expression: low (doxycycline-induced shRNA knockdown)
[13] = 0.926 µM, library screen: screen3, EWS-FLI1 expression: high (no doxycycline)
[14] = 0.926 µM, library screen: screen3, EWS-FLI1 expression: low (doxycycline-induced shRNA knockdown)
[15] = 2.8 µM, library screen: screen3, EWS-FLI1 expression: high (no doxycycline)
[16] = 2.8 µM, library screen: screen3, EWS-FLI1 expression: low (doxycycline-induced shRNA knockdown)
[17] = 8.3 µM, library screen: screen3, EWS-FLI1 expression: high (no doxycycline)
[18] = 8.3 µM, library screen: screen3, EWS-FLI1 expression: low (doxycycline-induced shRNA knockdown)
[19] = 25 µM, library screen: screen3, EWS-FLI1 expression: high (no doxycycline)
[20] = 25 µM, library screen: screen3, EWS-FLI1 expression: low (doxycycline-induced shRNA knockdown)
[21] = 0.025 µM, library screen: screen2, EWS-FLI1 expression: high (no doxycycline)
[22] = 0.025 µM, library screen: screen2, EWS-FLI1 expression: low (doxycycline-induced shRNA knockdown)
[23] = 25 µM, library screen: screen2, EWS-FLI1 expression: high (no doxycycline)
[24] = 25 µM, library screen: screen2, EWS-FLI1 expression: low (doxycycline-induced shRNA knockdown)

Measured: cell viability (log2)

CC1(C)CCC2=C(O1)c1ccccc1C(=O)C2=O
inactive: [1] 0.122 | [2] 0.0711 | [3] 0.0799 | [4] 0.0776

CCOC(=O)C1=C(C)N=C2SC(C)C(=O)N2C1c1ccc(OC)cc1 (stereo not given)
inactive: [5] 0.148 | [6] 0.0319 | [7] 0.107 | [8] 0.0438

CC(=O)OCC[N+](C)(C)C
inactive: [5] 0.108 | [6] 0.145 | [7] 0.235 | [8] 0.234

CC(=O)O[C@@H]1CC2C(C)(C)C(=O)CC[C@]2(C)C2CC[C@]3(C)C(=CC(=O)O[C@H]3c3ccoc3)[C@@]21C (stereo not given in full)
inactive: [5] 0.0774 | [6] 0.142 | [7] 0.182 | [8] 0.164

CC(=O)O[C@H]1C[C@@H](OC(C)=O)C(C)(C)C2C[C@@H](OC(C)=O)[C@@]3(C)C4=CC(=O)OC(=O)[C@]4(C)CCC3[C@]21C (stereo not given in full)
inactive: [5] 0.0349 | [6] 0.118 | [7] 0.174 | [8] 0.189

N[C@@H](CSCCCO)C(=O)O
inactive: [9] 0.115 | [10] -0.0276 | [11] 0.135 | [12] 0.0612 | [13] 0.036 | [14] 0.1 | [15] 0.152 | [16] 0.0682 | [17] 0.103 | [18] 0.0755 | [19] 0.134 | [20] 0.135

O=C(O)/C=C/c1cnc[nH]1
inactive: [1] 0.168 | [2] 0.0645 | [3] -0.0529 | [4] 0.0532

C[C@H](CCC(=O)O)[C@H]1CC[C@H]2[C@@H]3CC[C@@H]4C[C@H](O)CC[C@]4(C)[C@H]3CC[C@]12C
inactive: [5] 0.0214 | [6] -0.00846 | [7] 0.155 | [8] 0.115

CC(=O)SCC(Cc1ccccc1)C(=O)NCC(=O)OCc1ccccc1 (stereo not given)
inactive: [9] 0.0735 | [10] 0.0424 | [11] 0.0614 | [12] 0.104 | [13] 0.103 | [14] 0.0998 | [15] 0.0849 | [16] 0.0713 | [17] 0.0257 | [18] 0.0151 | [19] 0.132 | [20] 0.14

O=C(O)CCCC[C@@H]1SC[C@@H]2NC(=O)N[C@@H]21
inactive: [5] 0.0947 | [6] 0.066 | [7] 0.152 | [8] 0.016

CCOC(=O)Nc1ccc(NCc2ccc(F)cc2)nc1N
inactive: [1] 0.199 | [2] 0.0446 | [3] 0.207 | [4] -0.0502

CC1COc2c(N3CCN(C)CC3)c(F)cc3c(=O)c(C(=O)O)cn1c23 (stereo not given)
inactive: [9] -0.0195 | [10] 0.125 | [5] 0.146 | [6] 0.0528 | [1] 0.159 | [2] 0.134 | [11] 0.0326 | [12] 0.0583 | [13] 0.112 | [14] 0.0335 | [7] 0.141 | [8] 0.0922 | [3] 0.14 | [4] 0.026 | [15] 0.0978 | [16] 0.142 | [17] 0.131 | [18] 0.0363 | [19] 0.0764 | [20] 0.0436

CN(C/C=C/C#CC(C)(C)C)Cc1cccc2ccccc12
inactive: [9] 0.0931 | [10] 0.0321 | [11] 0.121 | [12] 0.0707 | [13] 0.0937 | [14] 0.0724 | [15] 0.0718 | [16] 0.0676 | [17] 0.087 | [18] 0.0453 | [19] 0.0712 | [20] 0.083

Fc1ccc([C@@H]2CCNC[C@H]2COc2ccc3c(c2)OCO3)cc1
inactive: [5] 0.145 | [6] 0.103 | [7] 0.0979 | [8] 0.0302

N.N.O=C(O)C1(C(=O)O)CCC1.[Pt]
inactive: [21] 0.126 | [22] 0.0588 | [9] 0.0499 | [10] 0.0607 | [5] 0.0824 | [6] 0.145 | [1] 0.156 | [2] 0.113 | [11] 0.115 | [12] 0.0467 | [13] 0.0942 | [14] 0.0721 | [7] 0.157 | [8] 0.15 | [3] 0.122 | [4] 0.131 | [15] 0.0295 | [16] 0.0687 | [17] 0.0127 | [18] 0.0866 | [23] -0.0691 | [24] 0.0246 | [19] -0.00625 | [20] -0.0105

CN(C)CCCN1c2ccccc2CCc2ccccc21
inactive: [5] 0.0475 | [6] -0.0015 | [1] 0.172 | [2] 0.114 | [7] 0.11 | [8] 0.0877 | [3] 0.106 | [4] 0.0621

C[C@H]1COc2c(N3CCN(C)CC3)c(F)cc3c(=O)c(C(=O)O)cn1c23
inactive: [9] 0.206 | [10] 0.0437 | [5] 0.0988 | [6] 0.0882 | [11] 0.127 | [12] 0.148 | [13] 0.119 | [14] 0.164 | [7] 0.147 | [8] 0.106 | [15] 0.0698 | [16] 0.187 | [17] 0.139 | [18] 0.0478 | [19] 0.0912 | [20] 0.153

NC(CO)C(=O)NNCc1ccc(O)c(O)c1O (stereo not given)
inactive: [9] 0.0508 | [10] 0.0252 | [5] 0.0934 | [6] 0.0515 | [1] 0.129 | [2] 0.0766 | [11] 0.178 | [12] 0.129 | [13] 0.092 | [14] 0.101 | [7] 0.121 | [8] 0.123 | [3] 0.0791 | [4] 0.129 | [15] 0.149 | [16] 0.0604 | [17] 0.0495 | [18] 0.0533 | [19] 0.0796 | [20] 0.0404

NC1(C(=O)O)CCc2cc(C(=O)O)ccc21 (stereo not given)
inactive: [2] 0.0469 | [3] 0.0221 | [4] 0.107
active: [1] -0.364

COc1ccc(C(C)C(=O)c2ccc(O)cc2O)cc1 (stereo not given)
inactive: [5] 0.0783 | [6] 0.0339 | [7] 0.16 | [8] 0.123

CN1CCC(OC(c2ccccc2)c2ccccc2)CC1
inactive: [5] 0.0868 | [6] 0.234 | [7] 0.195 | [8] 0.162

CCC/C=C/C=C/C1CC(O)C(O)C(=O)C1C=O (stereo not given)
inactive: [5] -0.0508 | [6] 0.0579 | [7] 0.0447 | [8] 0.105

COc1ccc(/C=C/C(=O)O)cc1O
inactive: [5] 0.0659 | [6] -0.0174 | [7] 0.0725 | [8] 0.0415

Nc1ccc2c3c(cccc13)C(=O)NC2=O
inactive: [2] 0.0582 | [3] 0.0677 | [4] 0.123
active: [1] -0.219

Cn1cc(-c2ccc3nnc(Sc4ccc5ncccc5c4)n3n2)cn1
inactive: [9] -0.0487 | [10] -0.0471 | [11] -0.0137 | [12] -0.0296 | [13] -0.0417 | [14] -0.0286 | [15] 0.0315 | [16] 0.0177 | [17] 0.0194 | [18] 0.0197 | [19] -0.0534 | [20] 0.0875

C=C[C@H]1CN2CCC1C[C@H]2[C@H](O)c1ccnc2ccc(OC)cc12 (stereo not given in full)
inactive: [9] 0.117 | [10] 0.0419 | [5] 0.0979 | [6] 0.0787 | [1] 0.301 | [2] 0.087 | [11] 0.0713 | [12] 0.119 | [13] 0.167 | [14] 0.0735 | [7] 0.173 | [8] 0.123 | [3] 0.178 | [4] 0.0152 | [15] 0.0946 | [16] 0.0541 | [17] 0.0987 | [18] 0.0369 | [19] 0.0679 | [20] 0.137

Clc1ccc(Nc2nnc(Cc3ccncc3)c3ccccc23)cc1
inactive: [9] 0.0957 | [10] 0.075 | [11] 0.106 | [12] 0.0929 | [13] 0.0501 | [14] 0.104 | [15] 0.103 | [16] 0.0818 | [17] 0.192 | [18] 0.107 | [19] 0.126 | [20] 0.0443

Cc1cc(O)c2c(c1)C(=O)c1cc(O)cc(O)c1C2=O
inactive: [21] 0.128 | [22] 0.0464 | [5] 0.0461 | [6] -0.0946 | [1] 0.148 | [2] 0.0491 | [7] 0.101 | [8] -0.0427 | [3] 0.1 | [4] 0.0836 | [23] 0.0169 | [24] -0.017

O=C(O)CSCC(=O)NC1CCSC1=O (stereo not given)
inactive: [9] 0.0382 | [10] 0.0164 | [11] 0.0384 | [12] 0.0888 | [13] 0.0295 | [14] 0.0633 | [15] -0.0368 | [16] 0.0578 | [17] 0.0607 | [18] 0.0674 | [19] 0.0738 | [20] 0.036

CC(C)=CCOc1cc2oc(=O)ccc2cc1O
inactive: [5] 0.00827 | [6] 0.0441 | [7] 0.122 | [8] 0.0618
